Data: ChEMBL document CHEMBL4888484, “Replenishing the malaria drug discovery pipeline: Screening and hit evaluation of the MMV Hit Generation Library 1 (HGL1) against asexual blood stage Plasmodium falciparum ,using a nano luciferase reporter read-out” (2022)
Out of some 150,000 compounds screened, about 540 (0.36%) showed an effect of 50% or more. This is one part of the list.

These compounds were tested on Plasmodium falciparum (assay: Primary screen in NF54 nanoGlo assay, in single point, at 2uM, 72h; a lower Z score goes with more inhibition). Settings: timepoint 72 hour.
Format: functional, Erythrocyte

SMILES	% Inhibition [%]	Z score
COc1ccc(C2CC(=O)N(c3ccc4c(c3)OCCO4)C(=O)C2)cc1OC	1	-0.13
CC1OCCC12CN(C(=O)C(C)(O)C(C)C)CCO2 (stereo unspecified)	-9	1.76
C#CCCC1(CCC(=O)N2CC(C)OC3(CCOC3)C2)N=N1 (stereo unspecified)	0	0.01
O=C(c1cnccn1)N(Cc1ccsc1)CC(F)(F)F	0	-0.02
COc1ccccc1OCCn1cnc2c1CCNC21CCOCC1	-4	0.85
CC(=O)N[C@@H](Cc1c[nH]cn1)c1nc(C)nn1-c1ccc2c(c1)CCC2	-15	1.76
CC1CCc2c(F)cccc2C1NC(=O)C(=O)Nc1ccon1 (stereo unspecified)	0	0.03
O=S(=O)(c1cc(F)ccc1Cl)N1CC[C@H](c2ncccn2)C1	-1	0.13
Cc1c(C(=O)N2C[C@@H]3CC[C@H]2CN(CC(=O)N(C)C)C3)[nH]c2c(F)cccc12	-12	2.12
Cc1cc(C)n2cc(CNC(=O)Cc3nc4nc(C)cc(O)n4n3)nc2c1	-4	0.62
Nc1nonc1-c1noc(-c2cc(Br)ccc2OCc2ccccc2Cl)n1	6	-0.76
COc1ccc(N2CCN(C(=O)CN3C(=O)C4CC=CCC4C3=O)CC2)cc1 (stereo unspecified)	-11	1.78
O=C(N1CCCCCC1)N1CCN(S(=O)(=O)c2ccccc2)CC1	1	-0.16
C[C@H](OC(=O)c1cnc2c(c1)ncn2C)c1nccs1	-12	1.2
CCOc1cc(CNC(=O)N2CCCN(c3ccnc(C)c3)CC2)ccc1OC	-6	0.83
CC(=O)N[C@H]1[C@H](NC(=O)c2sc(C)nc2C)[C@@H]2CCO[C@@H]21	6	-1.13
Cc1ccc(N2CC[C@H]3[C@H](CCC(=O)N3CCCn3ccnc3)C2)nn1	-11	1.06
CC(C)CN1C[C@@H](NCc2ccc(N(C)C)cc2)C[C@H]1C(=O)NCCc1ccccc1F	-1	0.11
CCCCc1ccc(NC(=O)c2coc(NC(=O)c3cc(C)on3)n2)cc1	5	-0.67
CN(C(=O)CNC(=O)c1c(Cl)cnn1C)C1CCCCC1	-6	0.82
CC1CC1c1ccc(CN(C)Cc2cccnc2)o1 (stereo unspecified)	-4	0.4

SMILES	% Inhibition [%]	Z score
COc1ccc(/C=C\c2onc(C)c2NC(C)=O)cc1S(=O)(=O)NC1CCCCCCC1	4	-0.7
CC(NCCCOC1CCOC1)c1cc2ccccc2o1 (stereo unspecified)	-12	1.06
CC(C)n1cnnc1CN1CCC2(CCC(=O)N(CCc3ccccc3)C2)CC1	0	0.04
Fc1cc(CNCCC(F)(F)F)ccc1OC(F)F	-15	1.25
COc1cccc(C(=O)NCc2cccnc2-c2ccc(C)cc2)c1	-7	0.97
O=C(c1cccnc1)N1CC[C@H](c2nnc(Cc3ccccc3)o2)C1	1	-0.17
CCN=C(NCc1noc(C)n1)N1CC=C(c2ccccc2)CC1	14	-1.53
COc1cccc(CNC(=O)[C@H](C)NS(=O)(=O)c2ccccc2C(F)(F)F)c1	-2	0.18
COc1ccc(-c2cccc3c2CCN(C(=O)C(C)C)[C@@H]3C)cc1	1	-0.13
Oc1cccc(CN2CCCC23CCN(c2cnc4ccccc4n2)CC3)c1	-4	0.47
C#C[C@H](C)NS(=O)(=O)CC1CCCCC1	-8	1.01
O=C(CC[C@@H]1NC(=O)NC1=O)NCCn1cc(Cl)cn1	2	-0.15
CN(c1ncnc2ccsc12)[C@H]1CCN(CC(F)(F)F)C1=O	3	-0.58
Cc1cc(NC(=O)[C@H](C)N(C)Cc2ccc3c(c2)OCO3)on1	-43	5.01
Cc1cc(C(=O)N2CCc3ccc(Br)cc32)on1	-14	2.65
O=C(c1c[nH]c2ccccc12)N1CC[C@H](c2nc(-c3ccccc3)no2)C1	3	-0.4
C[C@](NC(=O)CCc1ccco1)(C(N)=O)c1cccc(Cl)c1	-8	0.85
O=C1C[C@@H](C(=O)N2CC(Cc3ccoc3)C2)NC(=O)N1	-12	1.39
CC(C)c1cc(CN[C@@H](C)c2cc(Cl)cc(Cl)c2)on1	-4	0.61
COc1cc(NC(=O)Cn2c(=O)n(Cc3cccc(Cl)c3)c(=O)c3ccccc32)cc(OC)c1	9	-1.06
CCc1cnccc1C(=O)N(CC1CC1)CC(F)(F)F	-3	0.39

SMILES	% Inhibition [%]	Z score
CC[C@@H](CNC(=O)Nc1ncn(CC)n1)N1CCOCC1	-2	0.31
Cc1nc(O)c2nnn(Cc3ccccc3Cl)c2n1	-8	0.92
CS(=O)(=O)c1ccc(CN2C[C@@H]3C[C@H]2C(=O)Nc2ccccc2O3)cc1	-17	2.6
O=S(=O)(c1cc(Cl)cc(Cl)c1)N1CCOC[C@H]1c1nc[nH]n1	-15	1.38
Cc1cccnc1C(NC(C)C(=O)NC1(C#N)CCCCC1)C(C)C (stereo unspecified)	-3	0.54
O=S(=O)(c1ccccc1F)N1CC(O)(c2cnn[nH]2)C1	-4	0.84
CCCCOc1ccc(-c2ccc(C)cc2)cc1[C@H]1Nc2ccccc2C(=O)N1c1ccccc1	39	-5.04
O=S(=O)(Nc1ncccc1Cl)c1cnc(-c2ccccc2)nc1	-6	0.71
O=C(CCCC(=O)c1ccccc1)NCc1ccc(C2CC2)nc1	10	-1.33
COCC(=O)NC1CN(C(=O)c2cc(C(C)C)on2)C1	-10	0.84
CCc1nc([C@H](C)NC(=O)Nc2nc(COC)cs2)cs1	-11	1.2
O=S1(=O)CCN(CCCNCc2cc(Cl)ccc2F)CC1	4	-0.51
COc1cc(OC)cc(OCc2nnc(C)n2C2CC2)c1	3	-0.32
CC(C)(C)c1ccc(COC(=O)c2ccc(Cl)c(S(=O)(=O)N3CCCCCC3)c2)cc1	2	-0.3
O=C(NC1CCCCC1)c1ccc(Nc2ncc(-c3cccc(F)c3)cn2)cc1	-9	1.43
c1cc([C@@H]2CN(Cc3noc(C4CC4)n3)CCO2)cs1	35	-5.12
C[C@H](C(=O)N(C)CCN(C)c1nccc(Oc2ccccc2)n1)c1ccccc1	16	-2.33
Cc1ccc2c(c1)CN(Cc1n[nH]cc1C)CCO2	8	-0.79
Cn1cc(-c2nccnc2CNC(=O)Cn2cnc3ccccc3c2=O)cn1	-9	1.04
CC(=O)c1c(C)nn(CCc2ncnn2Cc2ccc3c(c2)OCO3)c1C	-2	0.2
CN1CCO[C@@H](CN(CC2CC2)C(=O)c2cnn(C)c2)C1	-2	0.4

SMILES	% Inhibition [%]	Z score
CC(=O)Nc1ccc(O)c(C(F)(F)F)c1	2	-0.19
COc1ccc(C(=O)N2CCC[C@H](n3cc(-c4nc(C5CC5)no4)nn3)C2)cc1F	-2	0.31
CCN(C)C(=O)c1cccc(Nc2c(Oc3ccc(F)cc3)cnn(-c3ccc(F)cc3)c2=O)c1	-4	0.55
Cc1ccc(NC(=O)c2c(-c3ccccc3)n(Cc3cccs3)c(=O)n2CCN2CCOCC2)cc1C	-12	1.34
CCOc1ccc(-c2[nH]c3[nH]c(=O)[nH]c(=O)c3c2-c2ccc(OC)cc2)cc1OC	4	-0.59
CCn1c(-c2cn(CCOC(C)C)nn2)nc2ccccc21	-21	2.08
OC[C@H]1C=C[C@@H](NC2CCCc3ccc(F)cc32)C1 (stereo partly specified)	7	-0.83
COc1cc(Cl)c(C)cc1NC(=O)[C@H]1CCCN(c2nc3cccnc3s2)C1	-15	1.31
Cc1noc(C)c1S(=O)(=O)N[C@H](c1cnn(C)c1)C1CC(O)C1 (stereo partly specified)	-8	1.53
O=C1CCCN1c1cccc(C(=O)N2CCCn3nnnc32)c1	-3	0.38
N#Cc1ccc(CNC(=O)NCc2ccsc2)c(F)c1	-1	0.12
CCc1ccc(CN2CCC[C@H](c3ncc[nH]3)C2)nc1	65	-9.74
O=C(NCCc1ccccc1)C(=O)NCC1(O)CCOCC1	5	-0.64
Cc1ncncc1-c1noc(C(C)(C)Oc2ccc(C(F)(F)F)cc2)n1	-2	0.34
O=C(N[C@H]1CCc2ccccc21)c1cccc(-n2cnnn2)c1	-12	1.63
CCOc1ccccc1-c1cc(C(=O)NCc2ccccc2)c2c(-c3ccccc3)[nH]nc2n1	-23	3.07
Cn1cc(-c2nc(-c3ccccc3)c(-c3ccc(-c4ccccc4)cc3)[nH]2)c2ccccc21	5	-0.81
Cc1nc[nH]c1CN1C[C@H]2CC[C@@H](C1)N(Cc1cc(CC(C)C)[nH]n1)C2	-5	0.84
C[C@H]1C(=O)N2C[C@@H](N(C)C)C[C@H]2CN1C(=O)c1ccc2ncccc2c1	-1	0.08
O=C(Nc1ccc(Cc2nnn[nH]2)cc1)c1ccc(Cl)cn1	-7	0.73
